Whole data set: some 81,000 sequences, median “one-hybrid fitness for binding parS DNA” near -0.17, cut for the highest 2% near 0.51. This is one part of the list.
B1: Caulobacter ParB omega fusion; a variant is named by its letters at X, in order, B8GW30 (parent)
chain: MESVVVGEPGMSEGRRGLGRGLSALLGEVDAAPAQAPGEQLGGSREAPIEILQRNPDQPRRTFREEDLEDLSNSIREKGVLQPILVRPSPDTAGEYQIVAGERAWRAAQRAGLKTVPIMVRELDDLAVLEIGIIENVQRADLNVLEEALSYKVLMEKFERTQENIAQTIGKSXSHVANXMRLLXLPDEVQSYLVSGELTAXHARAIAAAADPVALAKQIIEGGLSVRETEALARKAPNLSAGKSKGGRPPRVKDTDTQALESDLSSVLGLDVSIDHRGSTGTLTITYATLEQLDDLCNRLTRGI

Variants of: B1
Assay: one-hybrid fitness for binding parS DNA (scaled: cognate 1, non-cognate 0); higher = stronger binding
Details: with parS DNA site
Summary of the method: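 Fitness is the rescaled log change in variant-to-wild-type read ratio, measured by Illumina sequencing of plasmids before and after bacterial one-hybrid selection. The scale puts cognate at 1 and non-cognate at 0. Selection of Caulobacter ParB libraries, four specificity codons randomised, took place in E. coli USO with a HIS3 reporter, site 19 bp from the promoter, over 48 hours at 37°C on M9-minus-histidine with 0.1 mM IPTG and 5 mM 3-AT.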

one-hybrid fitness for binding parS DNA, 0.378:
RFRM

one-hybrid fitness for binding parS DNA, 0.425:
HRTS

one-hybrid fitness for binding parS DNA, 0.988:
RQHS

one-hybrid fitness for binding parS DNA, 0.595:
RAGA

one-hybrid fitness for binding parS DNA, 0.385:
RAKF

one-hybrid fitness for binding parS DNA, 0.456:
RFHN

one-hybrid fitness for binding parS DNA, 0.918:
RTAT

one-hybrid fitness for binding parS DNA, 0.288:
RLCW

one-hybrid fitness for binding parS DNA, 0.331:
RAFM

one-hybrid fitness for binding parS DNA, 0.205:
VHVQ

one-hybrid fitness for binding parS DNA, 0.271:
YRGC

one-hybrid fitness for binding parS DNA, 0.204:
CSWW

one-hybrid fitness for binding parS DNA, ≤ 0.2:
VMMR
TLNK
SCNG
SPET
SCQN
TKGM
WAQI
TMAQ
TSPR
CHPC
SPFD
GTAH
QYNM
HAHL
FRIG
DRWC
HSYN
LLDH
VPWM
TEMC
HDMS
KYMY
RADI
LQPG
VDEG
TSRY
CILV
SALQ
YLEN
QLNE
GSAG
IGRM
AGRE
VRVV
GGPV
AMRW
QANP
LHEN
HKNT
NIST
PHVW
GCGG
LRWR
MLLG
YAMT
KTSC
CPKG
WSIQ
LLEN
SFCV
QKAT
TDWT
QKMK
AEEL
QTLC
TACQ
AILY
MRMY
QVTT
PEVW
NAKF
VPKP
HPHG
CGSF
QCCN
YWIE
SRRF
GRME
HTCM
KTPN
EFLV
VWKR
AHSA
FPTY
CRNI
NNPY
KPPV
RINV
YSLN
TDSH
RSPI
IIYG
LHKR
NPNS
GWGG
MRYG
IFTW
SPIW
RCSL
PQYR
QGIR
SPNY
QYQC
HYRG
RQIE
VWSS
DLLV
KYTN
IKLG
LIPL
RNTW
LQGV
GNVG
HNGM
AEER
DTVT
RSDE
PLVI
CHKT
VPYI
KWER
MSMF
CFLM
SFIG
GTNC
CLAY
IVQG
VTMP
HFYC
YTGW
QYTK
SGHI
PKGE
ISIV
ESLV
AYQS
SASF
NALL
TPDE
VHQG
KLHL
ASSV
YQSW
IYSC
RVCI
ARST
LGRH
LCNV
VFET
TYHE
HNNG
MSSE
MDFC
QHHT
LLQD
QGIM
GWDK
KISV
YVSR
RRLI
HPLG
RPSW
FKSY
GMMW
IAHT
AICS
GNES
VDKV
KLEL
MIPV
VGRR
TPKK
GLLA
CGAD
VFCG
QDLS
GEQT
QAVF
HPAT
LQKR
DTNT
ENKQ
NKQS
APNS
GCPD
IVPF
PPED
FISY
YTSV
QRHE
RKFF
NDHR
SYKG
PPHN
MQVV
SHWD
LMYG
YMKG
RSEF
TPAP
YNKC
QYWY
PGPF
MGFG
AHCC
AAFG
LRMM
YLNR
YRAF
LSMC
HIFW
STML
VAFI
RHAE
RGAR
RVMV
QMAP
SQSY
YHVC
RFLV
YGGS
CPEV
SVFW
CRLD
LRKL
KPLM
QCYT
NVMT
WHGM
IHID
GRNA
SGPT
FGTW
YMPF
HSKP
YFEV
PDKK
VLDN
PVTA
AYNT
NRWL
ENMV
CFTR
TMFL
ENTE
IMAS
HTIV
YKDC
PCAD
QREW
TIIR
ALYW
WPHT
KEQS
ALWS
QNKA
LKHN
WVGK
MHLT
TACT
QHLP
LSNY
RCTK
QKCK
HLRM
QRWE
YKQP
LWMG
NFHC
FMKW
TSST
PFGC
ANAW
APHV
FEPF
AKLC
QNQY
HYKC
IKNS
QHQD
LPDG
MKPR
EAQF
LDSV
QSGT
KLFG
KLQG
APAI
VFVR
RIVR
KVIT
QFGG
RFYW
NQQV
HWQF
QCRV
QYHV
VVAC
IIYF
ASYG
QPKD
QLSE
LWDC
CDAS
